# Measurements reported in PubChem BioAssay AID463173 (ICCB-Longwood Screening Facility, Harvard Medical School, 2010).
# In all, about 52,000 compounds went through this assay and about 1,700 (3.3%) were called active. Cut-off read from the data, not from the text of the source: active = survival mostly below about 52% (no sharp cut-off); inactive = mostly above about 56%. Some of the results follow.
# Test system: Wild type
# Assay: S. aureus survival, RN4220 and DeltatarO strains – OD600, teichoic acid synthesis inhibitors, primary screen (AID 463173)
# Settings: S. aureus RN4220 wild type/DeltatarO growth, OD600, 18 h, stronger effect = lower value, screened at 18.75 µg/mL (by protocol)
row,SMILES,survival
1,O=C(Nc1ccc(Cl)cc1)c1ccc2c(c1)N(Cc1ccccc1)C(=O)c1ccccc1S2(=O)=O,inactive: 149%
2,COc1ccc(NC(=O)Cn2c(=O)n(Cc3ccco3)c(=O)c3sc4ccccc4c32)cc1Cl,inactive: 77%
3,O=C(Nc1ccc(Cl)cc1)c1ccc2c(c1)N(Cc1ccccc1)CCS2,inactive: 89%
4,Cc1ccc(N2CCn3c2nc2c3c(=O)n(Cc3cccc(Cl)c3)c(=O)n2C)cc1C,inactive: 82%
5,CC(C)c1ccc(NC(=O)CN2C(=O)C3(SCC(=O)N3c3ccc(F)cc3)c3ccccc32)cc1 (centres undefined),inactive: 58%
6,O=C(O)/C=C/C(=O)Nc1ccc(-c2nc3ccccc3o2)cc1,inactive: 99%
7,CCCOc1ccc(CC2C(=O)Nc3ccc(Br)cc32)cc1 (centres undefined),active: -7%
8,O=C(CN1C(=O)CCSc2ccc(S(=O)(=O)N3CCCC3)cc21)Nc1ccccc1Cl,inactive: 72%
9,CCN(C(=O)CSc1nc2ccccc2nc1Cc1ccccc1OC)c1ccccc1,inactive: 88%
10,CCCC12CN3CC(CCC)(CN(C1)C3c1c[nH]c3ccc(OC)cc13)C2=O (centres undefined),inactive: 86%
11,CC(C(=O)NCc1ccccc1)n1ccc2cc(S(=O)(=O)N3CCCC3)ccc21 (centres undefined),active: -3%
12,CCOc1ccccc1CNC(=O)CCc1cn(C)c2ccccc12,inactive: 125%
13,Cc1nc(CC(=O)Nc2ccc(C(N)=O)cc2)cs1,inactive: 83%
14,CCSC1=NC2(CCN(C(=O)NC3CCCCC3)CC2)N=C1c1ccc(OC)cc1,inactive: 136%
15,Cc1ccc(C(=O)CC2(O)C(=O)N(CCc3ccccc3)c3ccc(Br)cc32)cc1 (centres undefined),inactive: 24%
16,Cn1c(=Nc2cccc(O)c2)sc2ccccc21,inactive: 94%
17,CCOCCCNC(=O)C(c1ccc(OC)cc1)N(Cc1cccs1)C(=O)CNC(C)=O (centres undefined),inactive: 79%
18,CCc1cccc(NC(=O)CN2C(=O)COc3ccc(S(=O)(=O)N4CCC(C)CC4)cc32)c1,inactive: 69%
19,CC(=O)Nc1ccc(S(=O)(=O)NC2(C(F)(F)F)C(=O)Nc3c2c(=O)[nH]c(=O)n3-c2ccc(C)cc2)cc1 (centres undefined),inactive: 63%
20,COc1ccc(NC(=O)Cn2c(=O)n(Cc3ccccc3Cl)c(=O)c3cc(OC)c(OC)cc32)cc1,inactive: 75%
21,CCOC(=O)c1cc2c(=O)n3ccccc3nc2n(CCCOC)c1=NC(=O)c1cc2ccccc2o1,inactive: 70%
22,O=c1oc2ccc(Cl)cc2cc1-c1nc(-c2cccs2)no1,inactive: 100%
23,Cc1ccc(CCNC(=O)c2cc3ccccn3n2)cc1,inactive: 92%

row,SMILES,survival
1,Cc1ccc(Cn2c(C)c3cnn(CC(=O)N4CCN(c5cc(C)ccc5C)CC4)c(=O)c3c2C)cc1,inactive: 65%
2,COc1cccc(-n2c(C)nc3c(cnn3-c3ccc(C)c(C)c3)c2=O)c1,inactive: 54%
3,CCOc1cc2[nH]c(=O)n(CCC(=O)N3CCN(c4ccccc4)CC3)c(=O)c2cc1OCC,inactive: 74%
4,COC(=O)c1c(NC(=O)CS(=O)(=O)c2ccc(C)cc2)sc2c1CCCCC2,inactive: 67%
5,Cc1ccc(-n2nc3c(N4CCCC(C(=O)NCc5ccccc5C)C4)nnc(C)c3c2C)cc1 (centres undefined),inactive: 80%
6,Cn1c(=O)n(C)c2cc(CNCc3ccccc3Cl)ccc21,inactive: 87%
7,COc1cccc(C(=O)NCc2cn3cccc(C)c3n2)c1,inactive: 90%
8,O=C(c1ccccc1)N(Cc1ccco1)c1nc(-c2ccccc2)cs1,inactive: 103%
9,O=C(c1ccc(Cl)cc1)n1nc(-c2ccccc2)nc1NCc1ccco1,active: 24%
10,COc1ccc2c(c1)c1c(c(=O)n(-c3cc(Cl)ccc3C)c(=O)n1Cc1ccc(F)cc1)n2C,inactive: 124%
11,CC(C)c1ccc(NC(=O)CSC2=Nc3ccccc3C3=NC(CCC(=O)NCc4cccs4)C(=O)N23)cc1 (centres undefined),inactive: 89%
12,CCOc1ccc(NC(=O)c2nn(C)c3c2COc2ccccc2-3)cc1,inactive: 83%
13,CCOc1ccc(S(=O)(=O)Nc2cc3c(C(=O)OCc4ccccc4)c(C)oc3c3ccccc23)cc1,inactive: 117%
14,Cc1c(Cl)cccc1-n1ncc(C(=O)NC2CCCC2)c1C1CCN(C(=O)OC(C)(C)C)CC1,inactive: 66%
15,Cc1ccc(NC(=O)N2CCN3CCCCC3C2)cc1C (centres undefined),inactive: 69%
16,Cc1cc(C)nc(NCC(O)CNc2ccccc2Cl)n1 (centres undefined),inactive: 113%
17,CC(=O)c1c(C)n(-c2cccc(Cl)c2)c2ccc(OC(=O)c3ccccc3)cc12,inactive: 91%
18,O=C(CNS(=O)(=O)c1ccccc1)NCC1CCCO1 (centres undefined),inactive: 107%
19,CCCOC(=O)c1c(-c2ccccc2)c(-c2ccccc2)nn(C)c1=O,inactive: 86%
20,Cc1cc(C)c(-c2n[nH]c3c2C(c2ccccc2F)N(CCO)C3=O)c(O)c1 (centres undefined),inactive: 83%
21,COc1ccccc1C(=O)OCc1cc(=O)n2c(C)csc2n1,inactive: 71%
22,CCSc1ncc(Cl)c(C(=O)Nc2cc(C)ccc2C)n1,inactive: 90%
23,COc1cccc(NC(=O)CSc2nc(=O)[nH]c3c2CCCC3)c1,inactive: 85%

row,SMILES,survival
1,N#C/C(=C(/O)CN1C(=O)c2ccccc2C1=O)c1nc2ccccc2[nH]1,inactive: 117%
2,COc1ccc(CCNC(=O)CN2C3CCCC2CC(=O)NC3)cc1OC (centres undefined),inactive: 94%
3,COc1ccc(-c2[nH]c(-c3ccc(C)cc3)nc2SCC(=O)NCC2CCCO2)cc1 (centres undefined),inactive: 86%
4,COc1ccc(Br)cc1CNCc1c(C(=O)O)c(C)n(Cc2ccccc2C)c1C,inactive: 95%
5,CCOc1ccc(-c2cc3nc(C4CCN(C(=O)OC(C)(C)C)CC4)c(C(=O)Nc4cccc(C(F)(F)F)c4)cn3n2)cc1,inactive: 81%
6,Cc1nc2cccnc2n1-c1cccc(C(=O)NCc2cccc(Cl)c2)c1,inactive: 94%
7,C=CCn1c(Br)nc2c1c(=O)n(C)c(=O)n2C,inactive: 104%
8,CCS(=O)(=O)N1CC(=O)N(c2cc(Cl)ccc2C)C(C)(C(=O)NC2CCCCCC2)C1 (centres undefined),inactive: 78%
9,CCCCCOC(=O)CSc1nc2sc3c(c2c(=O)n1Cc1ccccc1)CC(C)(CC)OC3 (centres undefined),inactive: 61%
10,Cc1cc2c(cc1S(=O)(=O)CCC(=O)N1CCN(c3ccccc3)CC1)OCC(=O)N2,inactive: 91%
11,COc1cc(Cl)c(NS(=O)(=O)c2cc3[nH]c(=O)c(=O)[nH]c3cc2C)c(OC)c1,inactive: 128%
12,COc1cccc(C(=O)NC2=NC(c3ccccc3F)CC(=O)N2)c1 (centres undefined),inactive: 73%
13,CCOC(=O)N1CCN(C(=S)Nc2ccc3nsnc3c2)CC1,inactive: 103%
14,Cc1ccc(-n2c(=O)c3c4c(sc3n(CC(=O)C(C)(C)C)c2=O)CCCCC4)cc1C,inactive: 73%
15,COc1ccc(-c2nc3scc(CCNS(=O)(=O)c4cccs4)n3n2)cc1,active: 1%
16,COc1ccc(CNC(=O)CCc2c(C)nn(-c3ccc(N4CCCC4)nn3)c2C)cc1,inactive: 77%
17,CCOC(=O)Cc1ccc(NC(=O)Nc2nnc(N3CCCCC3C)s2)cc1 (centres undefined),inactive: 89%
18,CN=C1SC(CC(=O)NC(N)=O)C(=O)N1C (centres undefined),inactive: 92%
19,c1cc2c(cc1CNc1ccc(N3CCOCC3)cc1)OCO2,inactive: 108%
20,COC(=O)c1ccc(NC(=O)c2c(-c3ccccc3)c(-c3ccccc3)nn(C)c2=O)cc1,inactive: 86%
21,O=C(Nc1ccc2c(c1)CCCN2C(=O)c1cccs1)c1ccccc1C(F)(F)F,inactive: 70%
22,CCCN(C(=O)c1cc2c(s1)-c1ccccc1OC2)c1ccc(C(C)C)cc1,active: 5%
23,Cc1cccc(OC(=O)c2snnc2C)c1C,inactive: 80%

row,SMILES,survival
1,CCC(=O)N1CCc2cc(Br)cc(S(=O)(=O)NCCc3ccc(C)cc3)c21,inactive: 80%
2,CCOC(=O)c1ccc(NC(=O)Nc2cc3c(cc2N2CCCCC2)n(CC)c(=O)n3CC)cc1,inactive: 109%
3,Cc1ccc(S(=O)(=O)Nc2nc(C)c(NC(=O)NC3C=NN=C3)s2)cc1,inactive: 106%
4,CCc1ccc(Nc2nc(-c3cc4cccc(OC)c4oc3=O)c(CC)s2)cc1,inactive: 126%
5,Cc1ccc(NC(=O)C2CCC(CNS(=O)(=O)c3cccs3)CC2)cc1C (centres undefined),inactive: 75%
6,COc1ccc(-c2nnn(CC(=O)N(CC(=O)NC3CCCC3)c3ccccc3)n2)cc1OC,inactive: 104%
7,CCC(=O)N1c2ccc(S(=O)(=O)CCC(=O)NCc3ccc(OC)cc3)cc2CC1C (centres undefined),inactive: 120%
8,CCOC(=O)C1CCN(C(=O)c2ccc(C)c(NC(=O)c3nsc4ccccc34)c2)CC1,inactive: 75%
9,Cc1cc(C)c(NC(=O)CCN2CCCCC2)c(C)c1,inactive: 92%
10,OCCN(CCO)CC(O)Cn1c2ccc(Br)cc2c2cc(Br)ccc21 (centres undefined),inactive: 74%
11,O=C(Cn1c(=O)c2ccccc2n(CC(=O)Nc2ccccc2F)c1=O)NCCc1ccccc1,inactive: 89%
12,CCc1cccc(C)c1Nc1c(-c2cccs2)nc2ncccn12,inactive: 71%
13,O=S(=O)(Nc1ccc(OC(F)(F)F)cc1)c1ccc(N2CCCCS2(=O)=O)cc1,inactive: 68%
14,Cc1cc(C)c(S(=O)(=O)NCC(c2ccco2)S(=O)(=O)c2ccccc2)c(C)c1 (centres undefined),inactive: 124%
15,COc1ccc(NC(=O)COCc2cc(-c3ccco3)on2)cc1Cl,inactive: 118%
16,O=C(Nc1ccc(F)c(F)c1)c1ccc(=O)n(Cc2ccc(F)cc2)c1,inactive: 121%
17,CC(C)c1ccc(S(=O)(=O)NCc2nc3cccnc3n2Cc2ccc(F)cc2)cc1,inactive: 78%
18,CC1=C(C(=O)Nc2cc(C)cc(C)c2)C2(CCCCC2)OC1=O,inactive: 86%
19,Cn1cnnc1SCCOc1ccc(Cl)cc1,inactive: 111%
20,COc1ccc(N2CCN(C(=O)CSc3nnc4c(C)cc5cc6c(cc5n34)OCCO6)CC2)cc1,inactive: 104%
